# According to PubChem BioAssay (NCI):
#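 Values below derive from 48-hour exposures of cells grown in 96-well plates, with endpoints linearly interpolated between the two concentrations bracketing the appropriate inhibition level. Here, GI50 denotes the concentration required for 50% inhibition of growth. Definition used: TGI = concentration required for complete inhibition of growth.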
# System: NCI-H322M lung
# Assay: NCI tumour cell line growth inhibition, 48 h
SMILES,GI50 [µM],TGI [µM]
Cc1nc(-c2cc3ccccc3oc2=O)ccc1C(=O)/C=C/c1ccccn1,> 100,> 100
O=C(NCCN1CCCC1)c1ccc(-c2nc3ccc4[nH]ncc4c3c3c2CCCC3)cc1,0.959,4.09
O=c1c2cc(-c3ccc(F)cc3F)ccc2n(Nc2ccccc2)c(=O)n1-c1cccc(C(F)(F)F)c1,2.16,8.62
